# Measurements: PubChem BioAssay AID1963576 (National Center for Advancing Translational Sciences (NCATS), 2024)
# Hit rate of the full screen: of about 46,000 compounds, about 60 (0.1%) were called active. Another 3% or so got no clear call; they are omitted. Calls come from the whole dose curve; as a rule, active = well fitted inhibition curve with a large enough effect; inconclusive = small, poorly fitted or top-dose-only effect; inactive = no such curve, though single readings can be large or run the other way. This is one part of the list.
# Test: Primary qHTS assay for Inhibitors of ovarian cancer metastasis using an organotypic tumor microenvironment (TME) model.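 For activity change, negative = inhibition: plate controls were DMSO wells for no effect and tomatine positive control wells for full effect.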 Note: nearly all actives have a fitted effect of over 65% in size.
# Conditions: SKOV3ip1-GFP adhesion/invasion on 3D omental model, fluorescence; series mostly up to 45.8 µM; activity change, negative = inhibition: at the top concentration
# Summary of the method: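 Primary human omental fibroblast/mesothelial 3D culture pre-formed 48 h. SKOV3ip1-GFP cells added with compounds (0.36-46 umol/L), incubated 2 h RT/16 h 37 C, fixed; GFP cells quantified at 488/509 nm.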
Structure (SMILES),outcome,"activity change, negative = inhibition"
COc1ccc(N2CCN(C(=O)CSc3n[nH]c(-c4ccccc4Cl)n3)CC2)cc1,inactive,–
Cc1ccc(C(=O)c2cn(Cc3ccc(Cl)cc3)c3nc(C)ccc3c2=O)cc1,–,inactive: -19%
Cc1cc(C)cc(N2C(=O)N(Cc3cccc(F)c3)c3ccccc3S2(=O)=O)c1,–,inactive: -12.3%
Cc1nc2scc(C)n2c(=O)c1S(=O)(=O)NCCc1ccccc1,–,inactive: 3.23%
CCOc1ccc(N(C)S(=O)(=O)c2ccc3[nH]cc(C(=O)NCc4ccccc4)c(=O)c3c2)cc1,–,inactive: 9.71%
CN(C)c1ccc(CNC(=O)CN2CCSc3ccc(S(=O)(=O)N(C)C)cc32)cc1,–,inactive: -0.291%
Cc1ccc2oc(=O)c(S(=O)(=O)c3ccc(C(C)(C)C)cc3)cc2c1,inactive,–
Cc1ccc(CNC(=O)c2cc(-c3ccc(Cl)cc3)on2)cc1,–,inactive: -2.56%
CCN1CCN(c2ncc3c(n2)CC(c2ccccc2O)CC3=O)CC1 (stereo not drawn),–,inactive: -3.04%
COc1ccc(OC)c2sc(N(Cc3cccnc3)C(=O)c3ccco3)nc12,–,inactive: -8.35%
Cc1cc(NC(=O)CN2C(=O)c3cccnc3Sc3ccccc32)ccc1Br,–,inactive: 7.65%
CCc1ccccc1NC(=O)Nc1nnc(N(CC)c2ccccc2)s1,–,inactive: 0.993%
CCOc1ccc(NC(=O)Cn2c(=O)n(CC(=O)NCc3ccccc3Cl)c(=O)c3sccc32)cc1,–,inactive: 0.119%
C[C@H](CCC(=O)O)[C@H]1CC[C@H]2[C@H]3[C@@H](CC[C@]12C)[C@@]1(C)CC[C@@H](O)C[C@H]1C[C@@H]3O,–,inactive: 0.902%
O=C(Nc1ccc(Br)cc1)C1CCCN1S(=O)(=O)c1ccc(F)cc1 (stereo not drawn),–,inactive: -2.39%
CC(C)(C)c1ccc(C(=O)Nc2sc3c(c2C#N)CCC(C(C)(C)C)C3)cc1 (stereo not drawn),–,inactive: 4.24%
COc1ccc(CNC(=O)c2oc3c(c2C)-c2nn(Cc4ccc(Cl)cc4)cc2CC3)cc1,–,inactive: -9.6%
Cc1ccc(CNC(=O)CNS(=O)(=O)c2cccs2)cc1,inactive,–
CCCCCn1c(=O)[nH]c2cc(C(=O)N3CCN(c4cccc(C(F)(F)F)c4)CC3)ccc2c1=O,–,inactive: -16%
Cc1ccc(NC(=O)C2CCN(c3nn4cc(-c5ccc(C)cc5)nc4s3)CC2)cc1,inactive,–

Structure (SMILES),outcome,"activity change, negative = inhibition"
CC(C)c1nn2c(=O)cc(COC(=O)c3ccccc3NC(=O)c3cccc(Cl)c3)nc2s1,–,inactive: 20%
COc1ccc(CCNC(=O)CCn2c(=O)c3ccccc3n(Cc3ccccc3)c2=O)cc1OC,–,inactive: 5.97%
Cc1cc(Nc2ccc(C(=O)O)c(O)c2)n2ncnc2n1,inactive,–
COc1cc(OC)c(NS(=O)(=O)c2c(C(=O)N3CCC(C)CC3)c(C)n(C)c2C)cc1Cl,–,inactive: -9.18%
Cc1nnc(NC(=O)CSCc2cc(=O)c3ccccc3[nH]2)s1,–,inactive: 0.976%
CCS(=O)(=O)N1CC(=O)N(c2ccc(Cl)cc2)C(C)(C(=O)NC2CCCCCC2)C1 (stereo not drawn),–,inactive: -1.93%
COc1ccc(N2CCN(Cc3nnc(-c4cccc(Br)c4)o3)CC2)cc1,–,inactive: 6.25%
Cc1cc(C)cc(Oc2nc3c(C)cccn3c(=O)c2/C=C(\C#N)c2nc3ccccc3s2)c1,–,inactive: -4.85%
COc1ccc(CCNC(=O)C(C)n2c(=O)cc(C(F)(F)F)c3c(C)nn(C)c32)cc1OC (stereo not drawn),–,inactive: 9.73%
CCc1ccc(C(=O)c2cn(Cc3ccc(F)cc3)c3cc(OC)c(OC)cc3c2=O)cc1,–,inactive: 3.9%
COC(=O)c1ccccc1NC(=O)c1cnc2c(-c3cccc(C)c3)c(C)nn2c1C,–,inactive: 8.04%
Cc1nc2ccn(Cc3cccnc3)c(=O)c2cc1C(=O)N1CCN(c2ccc(F)cc2)CC1,–,inactive: -3.9%
CC(C)Cn1c(-c2ccc(S(=O)(=O)N3CCOCC3)cc2)csc1=Nc1cc(Cl)ccc1Cl,–,inactive: 4.08%
COc1cccc(NC(=O)/C(C#N)=C/c2c(C)n(Cc3ccc(Cl)cc3)c3ccccc23)c1,–,inactive: -7.28%
CC(=O)c1cc(-c2ccc(F)cc2)n(CC(=O)Nc2cc(C)cc(C)c2)c1C,–,inactive: -2.79%
Cc1ccc(C(C)C)c(OCCSc2nc3ccccc3n2CC(O)CO)c1 (stereo not drawn),–,inactive: -22.9%
COc1ccccc1Cc1nc2ccccc2nc1SCC(=O)N1CCN(c2ccccc2)CC1,inactive,–
COc1ccc(CCn2c3c(c(=O)[nH]c2=O)C(NC(=O)c2ccc(C(C)(C)C)cc2)(C(F)(F)F)C(=O)N3)cc1OC (stereo not drawn),inactive,–
Cc1cc2nc(-c3ccc(NC(=O)c4cc5ccccc5o4)cc3)oc2cc1C,–,inactive: -7.28%
CCOc1ccc(Nc2nc3c(S(=O)(=O)c4ccc(C(C)C)cc4)nnn3c3ccsc23)cc1,–,inactive: -8.85%

Structure (SMILES),outcome,"activity change, negative = inhibition"
O=C(NCc1ccco1)c1ccc2c(c1)N(Cc1ccc(Cl)cc1)C(=O)c1ccccc1S2,inactive,–
COc1ccc(N2CCN(S(=O)(=O)CCNC(=O)c3c(F)cccc3Cl)CC2)cc1,–,inactive: 12%
COc1cccc(CNC(=O)CCC(=O)N2CC(C)Sc3ccccc32)c1 (stereo not drawn),–,inactive: -24.2%
Cc1ccccc1CN1C(=O)c2ccccc2S(=O)c2ccc(C(=O)NCc3ccc4c(c3)OCO4)cc21 (stereo not drawn),inactive,–
CCc1nnc2c3ccccc3nc(N3CCN(c4cc(C)ccc4C)CC3)n12,–,inactive: 6.2%
Cc1ccccc1CNC(=O)c1ccc(CN2CC(=O)N3CCCCC3C2=O)cc1 (stereo not drawn),–,inactive: -8.31%
CCCN(CCC)C(=O)C1CCCN(c2ncnc3c2nc2n3CCCCC2)C1 (stereo not drawn),–,inactive: 0.184%
Cc1nc2c(c(C)nn2C(C)(C)C)c(C)c1CCC(=O)Nc1ccc(Br)cc1Br,–,inactive: -4.87%
Cc1ccc(NS(=O)(=O)c2c(C)nc3sc(C)cn3c2=O)c(C)c1,–,inactive: 5.41%
Cc1ccc(S(=O)(=O)c2nnn3c2nc(N2CCC(C(N)=O)CC2)c2cc(Cl)ccc23)cc1C,–,inactive: -21.4%
Cc1ccc(NC(=O)[C@@H](c2ccccc2)N2Cc3ccccc3C2=O)cc1F,–,inactive: -9.85%
CCC(=O)Nc1cc2nn(-c3ccc(C)cc3)nc2cc1C,–,inactive: -3.53%
C[C@@H](Oc1cc(-n2cnc3ccc(CN4CCN(C)CC4)cc32)sc1C(N)=O)c1ccccc1C(F)(F)F,–,inactive: 0.642%
O=C(CSc1ncc2c(n1)-c1ccc(Cl)cc1N(Cc1ccccc1)S2(=O)=O)Nc1ccccc1C(F)(F)F,inactive,–
CCOC(=O)Cn1c(=O)n(CC2CCCO2)c2nc(-c3ccc(CC)cc3)nc(C(N)=O)c21 (stereo not drawn),–,inactive: 2.04%
CC(=O)Nc1c(C)nn(-c2ccccc2)c1N1CCC(C(=O)Nc2cccc(C(F)(F)F)c2)CC1,inactive,–
CCCCOc1ccccc1C1CC(=O)Nc2cc(OC)c(OC)cc21 (stereo not drawn),inactive,–
Cc1c(C(=O)NCc2ccc(F)cc2)sc2nc(-c3ccc(F)cc3)cn12,–,inactive: 3.94%
